The structures appear in SMILES notation. Where a name gives a salt, the structure may show the parent alone. This is one part of the list. The data scatter; read single values as rough.

Among the test systems are MKN45; PANC1; SUM159; T84.
Holding throughout (test): ALDHbr (CSC) cell proportion score relative to DMSO vehicle (ratio to DMSO); breast (SUM159) / gastric (MKN45) / pancreatic (PANC1) / colon cancer lines; ALDHbr cells have high ALDH activity and are rich in cancer stem cells (CSC); higher = more CSC (ALDHbr) cells remaining
Conditions in all cases: 10 µM; 72 h
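Note: High-content imaging of ALDEFLUOR-stained cells with Hoechst-labelled nuclei in 384-well plates, triplicate wells, scored as Z-score against 0.1% DMSO vehicle, negative meaning fewer ALDHbr cells.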

With `C[C@](N)(Cc1ccc(O)c(O)c1)C(=O)O` [Methyldopa (L,-)], the ALDHbr with MKN45 worked out at 1.09; with PANC1, 0.857; in the assay with SUM159, 1.04; in the assay with T84, 0.882.

As for `Cc1cccc(C)c1NC(=O)CN1CCN(CCCC(c2ccc(F)cc2)c2ccc(F)cc2)CC1` [Lidoflazine], the ALDHbr in the assay on MKN45 came out at 0.583; in the assay with PANC1 it was 0.712; in the assay with SUM159, 0.368; in the assay on T84, 0.203.

Take `CC[C@]12CCCN3CCc4c(n(c5ccccc45)[C@@](O)(C(=O)OC)C1)[C@@H]32` [Vincamine]: the ALDHbr with MKN45 was determined as 0.964; in the assay on PANC1, 1.05; with SUM159, 0.821; in the assay with T84, 0.925.

Turning to `CN(C)C(=N)NC(=N)N` [Metformin hydrochloride], the ALDHbr was 1.01 with MKN45, 0.833 in the assay on PANC1, 0.932 in the assay with SUM159 and 0.889 with T84.

`COc1ccc2c(c1)c(CC(=O)O)c(C)n2C(=O)c1ccc(Cl)cc1` [Indomethacin]: the ALDHbr in the assay with MKN45 was 1.07; in the assay with PANC1, 0.755; in the assay on SUM159, 0.908; with T84, 0.911.

As to `CNC(C)CCC=C(C)C` (stereo unspecified) [Isometheptene mucate], the ALDHbr with MKN45 stood at 1.05; with PANC1, 0.993; with SUM159, 0.886; in the assay with T84 it was 0.829.

As to `Cc1ccc(C(=O)c2ccc(CC(=O)O)n2C)cc1` [Tolmetin sodium salt dihydrate], the ALDHbr in the assay on MKN45 is 0.922; in the assay on PANC1 it was 0.891; with SUM159, 0.992; in the assay on T84 it was 0.893.

For `Cc1c(N(C)C)c(=O)n(-c2ccccc2)n1C` [Amidopyrine], the ALDHbr in the assay on MKN45 is 0.947; in the assay with PANC1 it was 0.962; in the assay with SUM159, 0.887; in the assay on T84, 1.01.

On to `CCN(CCCCOC(=O)c1ccc(OC)c(OC)c1)C(C)Cc1ccc(OC)cc1` (stereo unspecified) [Mebeverine hydrochloride], for which the ALDHbr was determined as 1.62 in the assay on MKN45, 0.747 with PANC1, 0.937 in the assay on SUM159 and 0.867 with T84.

`COc1ccc2c(c1)N(C[C@H](C)CN(C)C)c1ccccc1S2` [Methotrimeprazine maleat salt]: the ALDHbr in the assay with MKN45 worked out at 1.17; in the assay with PANC1, 1.16; with SUM159 it was 0.872; with T84 it was 1.08.

Turning to `CC(C)(Oc1ccc(CCNC(=O)c2ccc(Cl)cc2)cc1)C(=O)O` [Bezafibrate], the ALDHbr with MKN45 turned out to be 0.989; in the assay with PANC1, 0.963; in the assay with SUM159 it was 0.843; in the assay with T84, 1.

With `Cc1c(Nc2ncccc2C(=O)O)cccc1C(F)(F)F` [Flunixin meglumine], the ALDHbr with MKN45 amounted to 0.889; in the assay with PANC1 it was 0.892; with SUM159 it was 0.977; in the assay on T84, 0.811.

Take `CCCOc1cc(N)ccc1C(=O)OCCN(CC)CC` [Propoxycaine hydrochloride]: the ALDHbr in the assay on MKN45 turned out to be 1.28; with PANC1, 1.04; in the assay on SUM159, 0.987; in the assay on T84, 1.05.

Turning to `COc1cc(OC)c(C(=O)CCCN2CCCC2)c(OC)c1` [Buflomedil hydrochloride], the ALDHbr in the assay on MKN45 was 0.872; with PANC1 it was 0.898; with SUM159, 1.04; in the assay on T84, 1.03.

`CCCCC(C)(O)C/C=C/[C@H]1[C@H](O)CC(=O)[C@@H]1CCCCCCC(=O)OC` (mixture of isomers) [Misoprostol]: the ALDHbr was found to be 1.04 in the assay with MKN45, 0.912 in the assay with PANC1, 1.47 in the assay with SUM159 and 0.873 in the assay on T84.

Turning to `CC(=O)Oc1ccc(C(c2ccc(OC(C)=O)cc2)c2ccccn2)cc1` [Bisacodyl], the ALDHbr with MKN45 stood at 1.04; in the assay with PANC1 it was 0.965; in the assay on SUM159, 1.16; in the assay on T84 it was 0.916.

As to `O=C1NCN(c2ccccc2)C12CCN(CCCC(c1ccc(F)cc1)c1ccc(F)cc1)CC2` [Fluspirilen], the ALDHbr with MKN45 amounted to 0.842; in the assay on PANC1 it was 1.1; with SUM159 it was 0.33; in the assay on T84 it was 0.348.

In the case of `CCN(CC)CCNC(=O)c1cc(Br)c(N)cc1OC` [Bromopride], the ALDHbr was found to be 1.09 in the assay with MKN45, 0.874 in the assay with PANC1, 1.03 in the assay with SUM159 and 0.888 in the assay with T84.

Take `CN1CCN(CCCN2c3ccccc3Sc3ccc(Cl)cc32)CC1` [Prochlorperazine dimaleate]: the ALDHbr in the assay on MKN45 came to 0.63; in the assay on PANC1, 0.955; with SUM159, 0.266; in the assay with T84, 0.188.

As to `COC(=O)C1=C(C)NC(C)=C(C(=O)OCCN(C)Cc2ccccc2)C1c1cccc([N+](=O)[O-])c1` (stereo unspecified) [Nicardipine hydrochloride], the ALDHbr with MKN45 is 0.944; in the assay on PANC1, 0.67; in the assay with SUM159, 0.596; in the assay on T84, 0.746.

As to `CN(C)CC/C=C1/c2ccccc2Sc2ccc(Cl)cc21` [Chlorprothixene hydrochloride], the ALDHbr amounted to 0.857 in the assay with MKN45, 0.912 in the assay on PANC1, 0.462 in the assay with SUM159 and 0.814 with T84.

On to `O=C(CCNNC(=O)c1ccncc1)NCc1ccccc1` [Nialamide], for which the ALDHbr in the assay with MKN45 was found to be 1.11; in the assay with PANC1, 0.968; with SUM159, 0.895; in the assay on T84, 1.02.

As for `CCOC(=O)c1ccc(OC(=O)CCCCCNC(=N)N)cc1` [Gabexate mesilate], the ALDHbr in the assay on MKN45 amounted to 0.899; in the assay with PANC1, 0.966; in the assay with SUM159, 0.874; with T84 it was 0.994.

Take `Clc1cc(Cl)c(OCC#CI)cc1Cl` [Haloprogin]: the ALDHbr is 0.26 in the assay with MKN45, 0.782 in the assay with PANC1, 0.66 with SUM159 and 0.777 in the assay on T84.

On to `CCn1cc(C(=O)O)c(=O)c2cc(F)c(N3CCNC(C)C3)c(F)c21` (stereo unspecified) [Lomefloxacin hydrochloride], for which the ALDHbr turned out to be 1.1 in the assay with MKN45, 0.863 in the assay on PANC1, 1.12 in the assay with SUM159 and 1.07 with T84.

On to `COc1ccc2[nH]cc(CCNC(C)=O)c2c1` [Melatonin], for which the ALDHbr stood at 0.949 in the assay with MKN45, 0.824 with PANC1, 1.05 in the assay with SUM159 and 0.924 in the assay with T84.

On to `CCOCCn1c(N2CCCN(C)CC2)nc2ccccc21` [Emedastine], for which the ALDHbr in the assay on MKN45 worked out at 0.993; with PANC1, 0.872; in the assay with SUM159 it was 1.1; in the assay on T84, 0.847.

For the compound `Cc1onc(-c2c(Cl)cccc2Cl)c1C(=O)N[C@@H]1C(=O)N2[C@@H]1SC(C)(C)[C@@H]2C(=O)O` [Dicloxacillin sodium salt hydrate], the ALDHbr in the assay on MKN45 came to 1.03; in the assay with PANC1 it was 0.96; in the assay on SUM159, 0.901; in the assay on T84, 0.951.

For the compound `CC(=O)OCC(=O)[C@@]12N=C(C)O[C@@H]1C[C@H]1[C@@H]3CCC4=CC(=O)C=C[C@]4(C)[C@H]3[C@@H](O)C[C@@]12C` [Deflazacort], the ALDHbr with MKN45 stood at 0.966; in the assay with PANC1, 0.677; in the assay with SUM159, 1.02; in the assay on T84, 1.04.

The record behind these values is the supplement of paper PMC11880418.
